Data as given in PMC4336329 (PLoS ONE, 2015).
Hit rate of the full screen: of about 310,000 compounds, about 2,200 (0.71%) showed an effect of 50% or more. The effect is printed as a negative number. This is one part of the list.

These compounds were tested against human ether-à-go-go-related gene (hERG) potassium channel (human, UniProt Q12809) (assay: primary screen, population patch clamp on CHO cells stably expressing hERG).
Chain of human ether-à-go-go-related gene (hERG) potassium channel (Q12809 whole entry, looked up): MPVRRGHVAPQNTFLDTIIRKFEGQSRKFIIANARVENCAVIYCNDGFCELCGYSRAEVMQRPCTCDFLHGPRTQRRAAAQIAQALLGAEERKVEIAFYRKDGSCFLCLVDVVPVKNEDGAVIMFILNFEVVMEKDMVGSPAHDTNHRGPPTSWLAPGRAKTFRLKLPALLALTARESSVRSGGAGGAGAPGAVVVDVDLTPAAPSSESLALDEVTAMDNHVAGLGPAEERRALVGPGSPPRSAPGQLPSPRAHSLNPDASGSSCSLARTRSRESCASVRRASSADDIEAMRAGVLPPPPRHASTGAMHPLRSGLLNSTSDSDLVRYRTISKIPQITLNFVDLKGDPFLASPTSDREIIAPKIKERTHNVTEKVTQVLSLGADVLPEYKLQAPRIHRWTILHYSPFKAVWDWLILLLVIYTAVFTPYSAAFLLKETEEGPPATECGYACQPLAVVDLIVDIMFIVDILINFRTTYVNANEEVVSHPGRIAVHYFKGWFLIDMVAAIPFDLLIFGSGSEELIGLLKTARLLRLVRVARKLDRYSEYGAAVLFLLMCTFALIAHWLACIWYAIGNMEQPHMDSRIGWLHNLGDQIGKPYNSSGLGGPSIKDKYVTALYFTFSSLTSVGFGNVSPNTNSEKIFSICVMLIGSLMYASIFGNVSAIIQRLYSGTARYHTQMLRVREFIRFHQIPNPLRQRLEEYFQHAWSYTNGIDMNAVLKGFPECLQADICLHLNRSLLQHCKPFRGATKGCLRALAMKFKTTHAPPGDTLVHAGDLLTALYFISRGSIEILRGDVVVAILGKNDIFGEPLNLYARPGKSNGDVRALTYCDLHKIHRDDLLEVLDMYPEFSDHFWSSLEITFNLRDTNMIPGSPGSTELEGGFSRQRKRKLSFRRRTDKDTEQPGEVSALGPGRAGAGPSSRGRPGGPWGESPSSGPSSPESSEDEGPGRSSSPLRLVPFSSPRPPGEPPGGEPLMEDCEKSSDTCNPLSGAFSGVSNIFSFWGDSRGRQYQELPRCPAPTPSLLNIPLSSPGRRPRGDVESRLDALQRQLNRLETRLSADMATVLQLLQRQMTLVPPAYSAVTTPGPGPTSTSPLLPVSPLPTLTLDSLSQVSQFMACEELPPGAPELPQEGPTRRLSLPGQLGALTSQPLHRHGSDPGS

SMILES | hERG current change (%, negative = inhibition) at 1uM
CC(NC(=O)CSc1cccc(C(F)(F)F)c1)c1ccccc1 (stereo not drawn) | 5.45%
CSc1nc2nc3c(cc2c(=O)n1-c1cccc(C)c1)COC(C)(C)C3 | 12.6%
CCOC(=O)N1CCN(C(=O)CSCc2nc(-c3ccccc3F)oc2C)CC1 | 5.06%
CCn1c(COc2cccc(OC)c2)nnc1SCC(=O)Nc1ccccc1C(=O)OC | 9.55%
COc1ccccc1NC(=O)N(CCN1CCCC1)Cc1cc2cc(C)ccc2[nH]c1=O | -14.2%
COc1ccccc1-n1c(SCC(=O)N2CCCC2)nnc1-c1ccccc1 | 2.76%
COc1ccc(/C(C)=N/NC(=O)Cn2nc([N+](=O)[O-])cc2C)cc1 | 14.4%
Cn1c(SCC(=O)NCC2CCCO2)ncc(C(=O)Nc2ccccc2)c1=O (stereo not drawn) | 1.64%
Cc1nnsc1C(=O)NNc1ccc(C(C)(C)C)cc1 | 13.9%
Cc1cc(C)c(OCCNC(=O)c2ccccc2Sc2ccccc2C#N)c(C)c1 | 9.8%
CCOc1ccc(S(=O)(=O)N2CCN(CC)CC2)cc1NC(=O)c1ccccc1F | 2.07%
CCOc1ccc(N2C(=O)CC(NCc3ccc(F)cc3)C2=O)cc1 (stereo not drawn) | 0.609%
CC1(C)Cc2c(sc(NC(=O)COc3ccc(Cl)cc3)c2C#N)C(C)(C)N1 | 12.8%
C/C=C(\C)C(=O)NNC(=O)c1sc(-c2ccccc2)nc1C | 15.9%
O=C(NCc1ccncc1)C(F)(F)C(F)(F)C(=O)NCc1ccncc1 | -1.57%
COC(OC)c1ccc(C#N)c(SCc2ccc(C)cc2)n1 | 8.89%
CC(C)Cc1ccc(C(C)C(=O)O)cc1 (stereo not drawn) | 4.26%
COc1cc(COCC(O)CN2CCCCC2C)cc(OC)c1OC.Cl (stereo not drawn) | 14.4%
CCOC(=O)C1(CCOc2ccccc2)CCN(Cc2cccc(F)c2)CC1 | -7.5%
Cc1ccc(NC(=O)c2oc3c(c2C)C(=O)CC(C)(C)C3)cc1 | 12.5%
CC(C)c1ccc(OCC(=O)NNC(=S)NC(=O)C2CC2)cc1 | 10.7%
Cc1cc(C)nc(SCC(=O)OCN2C(=O)c3ccccc3C2=O)n1 | -6.32%
O=C1/C(=C/c2ccccn2)SC(=S)N1Cc1ccccc1 | 12.4%

SMILES | hERG current change (%, negative = inhibition) at 1uM
CC(C)n1nnnc1-c1ccc(Cl)cc1 | 13.6%
Cc1cccc(NC(=O)c2cnc3scc(C)n3c2=O)c1 | 7.85%
C/C(=N\NC(=O)C(N)=O)c1ccc2c(c1)OCCO2 | 11.6%
CC1CCCCN1C(=S)Nc1ccc(OC(F)F)cc1 (stereo not drawn) | 6.04%
C=CCn1c(P(=O)(O)c2ccccc2)nc2ccccc21 | 11.3%
CC1(C)C2CCC1(CS(=O)(=O)N1CCCc3ccccc31)C(=O)C2 (stereo not drawn) | 3.23%
CN1CCN(S(=O)(=O)c2ccc(N3CCN(C(c4ccccc4)c4ccccc4)CC3)nc2)CC1 | 18.9%
CC(=O)Nc1ccc(N/C=C2/CCCC2=O)cc1 | 11.7%
COc1ccc(Nc2oc(-c3ccccc3Cl)nc2C#N)cc1 | 3.38%
FC(F)=C(F)CCSc1ncn[nH]1 | 6.42%
CC(C)C(OC(=O)C1=Cc2ccccc2OC1)C(=O)NC1CCCC1 (stereo not drawn) | 10.6%
CC1CCC2(CC1)NC(=O)N(CC(=O)NCc1ccc(F)cc1)C2=O (stereo not drawn) | 0.473%
COC(=O)C(O)(c1ccc(N(C)C(=O)c2cccs2)cc1)C(F)(F)F (stereo not drawn) | 8.46%
CCN(c1ccccc1)S(=O)(=O)c1ccc(C(=O)Oc2ccc(C(C)=O)cc2)cc1 | 6.7%
Cc1cc(NC(=O)C2CC2)ccc1NC(=O)c1cccs1 | 12.7%
COc1ccc(C(CC(=O)c2ccc(O)cc2)S(=O)(=O)c2ccc(C)cc2)cc1 (stereo not drawn) | 12.3%
CCCCn1nnnc1NCc1cc(OC)c(OC)cc1OC | 6.58%
COc1ccc(C)cc1Nc1n[n+](-c2ccccc2)c(-c2ccc(SC)cc2)s1.[Cl-] | 10.6%
O=C(CCCc1ccccc1)NC12CC3CC(CC(C3)C1)C2 | 9.41%
CC1CCN(C(=O)c2[nH]cnc2C(=O)N2CCN(c3ccccc3)CC2)CC1 | 12.2%
c1ccc2c(c1)CNc1ccccc1C2 | 10.1%
CCOc1cc(C(=O)N2CCc3cc(OC)c(OC)cc3C2)ccc1OC(F)F | -13%
COc1ccc(CCNC(=O)C(=O)NCCC2CCCCN2S(=O)(=O)c2cccs2)cc1 (stereo not drawn) | 8.49%

SMILES | hERG current change (%, negative = inhibition) at 1uM
CC(C)Sc1nnc([C@@H](N)Cc2c[nH]c3ccccc23)o1.Cl | 15.3%
CC(C)(C)OC(=O)N1CCC(C(=O)N[C@@H](Cc2c[nH]c3ccccc23)C(=O)O)CC1 | 14.8%
Cl.OC(COCc1ccccc1)CN1CCc2ccccc2C1 (stereo not drawn) | 5.42%
CCCCN1C(=O)C2C(C(=O)Nc3cccc(OC)c3)C3C=CC2(O3)C1C(=O)NC1CCCCC1C (stereo not drawn) | 10.9%
Cc1ccccc1C(=O)N1CCN(c2ncccn2)CC1 | 13.7%
C/C(Cc1ccccc1)=N\NC(=O)CNC(=O)c1ccc(Cl)cc1 | 3.68%
COc1ccc(S(=O)(=O)NCC2CCCN(C(=O)CN3CCCCC3)C2)cc1 (stereo not drawn) | -4.03%
CCSC(SCC)[C@H](O)[C@@H](O)[C@H](O)[C@H](O)CO | 6.8%
C=CCn1c(COc2ccc(F)cc2)nnc1SCC(=O)NC1CCCC1 | -0.981%
CCCC(=O)Nc1ccc(NC(=O)c2ccccn2)cn1 | 4.46%
CCOC(=O)c1c(NC(=O)C2C3C=CC(CC3)C2C(=O)O)sc(C)c1CC (stereo not drawn) | 4.12%
CC(=O)c1ccc(NC(=O)/C(Cl)=C/c2ccccc2)cc1 | 15.1%
Cc1nc(-c2ccccn2)sc1C(=O)O | 13.5%
CC(=O)Nc1ccc(C(=O)N/N=C/c2cc(Br)cc(Br)c2O)cc1 | 12.1%
Cc1ccc(NC2=NC(C(=O)Nc3ccc(C)c(C)c3)CC(=O)N2)cc1 (stereo not drawn) | 4.67%
CN1CCN(C(=O)c2cccn(Cc3cccc(Cl)c3)c2=O)CC1 | 12.8%
Cc1ccc(CN(c2ccc(C(=O)NCC3CCCO3)cc2)S(C)(=O)=O)cc1 (stereo not drawn) | 6.06%
CN(C)c1[nH]c(=O)c(C#N)c2c1CCN2Cc1ccccc1 | 6.8%
CCN1C(=O)NC(=O)/C(=C\c2cn(CC(=O)N3CCCCC3C)c3ccccc23)C1=O (stereo not drawn) | 16.4%
CN(Cc1ccccc1)C(=O)COC(=O)c1ccccc1Nc1ccccc1 | 17.7%
CN1CCc2nc3sc(C(=O)C45CC6CC(CC(C6)C4)C5)c(N)c3cc2C1 | 7.67%
O=C(Nc1ccsc1C(=O)O)c1ccc(Cl)cc1 | 11.5%
COc1cc(CC(=O)OCC(=O)N2CCCCC2C)cc(OC)c1OC (stereo not drawn) | 4.36%

SMILES | hERG current change (%, negative = inhibition) at 1uM
COc1ccc(-c2nc(/C=C3\C(C)=Nc4ccccc43)c(O)o2)cc1 | -3.55%
COc1cccc(-c2noc(-c3cccnc3)n2)c1 | 9.47%
COc1ccccc1-c1ccc(=O)n(CC(=O)Nc2ccc(C(=O)N3CCCC3)cc2)n1 | 0.634%
C[C@H](NC(=O)c1nc[nH]c1C(=O)NCCCCC[NH3+])C(=O)OC(C)(C)C.[Cl-] | 18.3%
Cc1cccn2c(=O)c(/C=C(\C#N)S(=O)(=O)c3ccc(Cl)cc3)c(N3CCC(C(N)=O)CC3)nc12 | -16%
Cc1scc(-c2n[nH]c(=S)n2C(C)c2ccccc2)c1C (stereo not drawn) | 8.59%
CC(Oc1ccccc1)c1ccnc2nc(N3CCOCC3)nn12 (stereo not drawn) | 10.7%
CC1CN(C(=O)CCC(=O)N2CCCCC2)c2cc(Cl)ccc2O1 (stereo not drawn) | 6.37%
O=C(N/N=C/c1cccc([N+](=O)[O-])c1)c1cc[n+](CCO)cc1.[Cl-] | 16%
COc1ccccc1NC(=S)NC(=O)/C=C/c1cccs1 | 12.3%
O=c1cc(O)c2ccccc2n1Cc1ccccc1Cl | 3.63%
O=C(Nc1ccc(Cl)cc1)c1cc(Br)ccc1OCC(=O)N1CCOCC1 | 9.68%
O=C(O)c1ccc(OCc2cn3ccccc3n2)cc1 | 9.46%
O=C1NC(=O)C2(Cc3ccccc3N3CCOCC32)C(=O)N1c1ccccc1 (stereo not drawn) | 0.829%
Cc1cccc(NC(=O)N2C[C@H]3C[C@@H](C2)c2cccc(=O)n2C3)c1 | 2.69%
COCCN1CCN(C(=O)c2ccc3oc(CCCc4ccccc4)nc3c2)CC1 | 9.42%
CC(C)CNC(=O)c1ccc(C2SCC(=O)N2Cc2ccccc2)cc1 (stereo not drawn) | 6.56%
O=C1c2ccccc2NC2CCCCC12 (stereo not drawn) | 12.7%
CC(C)(C)C1=C(C#N)C(c2cc3c(cc2Br)OCO3)C(C#N)=C(N)O1 (stereo not drawn) | 8.25%
CCN(CCO)C(=O)C12CCC(C)(C(=O)C1)C2(C)C (stereo not drawn) | -2.44%
O=C(Nc1cccc(Cl)c1)c1ccc(NC2=NC3CS(=O)(=O)CC3S2)cc1 (stereo not drawn) | -1.79%
